Source: PubChem BioAssay AID652104 (National Center for Advancing Translational Sciences (NCATS), 2013)
Among all 410,000 compounds or so, about 7,200 (1.8%) were called active. This list was built around the results that the source calls inconclusive (neither active nor inactive); the mix of calls is not that of the screen. The call rests on the fitted dose curve; in most records, active means well fitted activation curve with a large enough effect; inconclusive means small, poorly fitted or top-dose-only effect, or another doubt; inactive means no such curve, though single readings can be large or run the other way. Potencies of inconclusive entries are left out as doubtful fits.

experiment: qHTS of TDP-43 Inhibitors; settings: TDP-43 expressing yeast growth rescue, BacTiter-Glo, 24 h; growth rescue (activation): at 46.1 µM (top of the series) unless noted; further: nearly all actives have a fitted effect of over 50% in size; on growth rescue (activation): % of control where 0% means no effect
Summary of the method: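 Yeast expressing TDP-43 (pregrown in raffinose, seeded at OD600=0.02 in galactose medium) exposed to compounds 24 hr at 30 deg C. Growth read by BacTiter-Glo luminescence; rescue of toxicity appears as increased signal.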
Potency means the concentration at half of the fitted maximal effect; tags describe the fitted curve by direction and shape.

| Compound | growth rescue (activation) | Potency |
| --- | --- | --- |
| O=C(CCNS(=O)(=O)c1ccc(Br)cc1)N1CCCCCCC1 | inactive: -12.3% | – |
| C/C(=N\NC(=O)c1c(Cl)cnn1C)c1ccc(NC(=O)c2ccc(Br)o2)cc1 | inactive: -7.26% | – |
| O=C(N/N=C/C=C\c1ccccc1[N+](=O)[O-])c1cccs1 | – | inconclusive [activator, single point] |
| CC(C)S(=O)(=O)c1oc(-c2ccc(F)cc2)nc1S(=O)(=O)c1ccc(F)cc1 | – | inconclusive [activator, partial curve] |
| Cc1cc(C)c2c(=O)n(CC(=O)Nc3ccc(Br)c(C)c3)sc2n1 | inconclusive: -88.9% [activator] | – |
| COc1ccc2[nH]cc(CCNC(=O)Nc3ccc(F)cc3)c2c1 | – | inconclusive [activator, full curve] |
| O=[N+]([O-])c1cccc(/C=N/n2cnnc2)c1O | – | inconclusive [activator, single point] |
| O=C(CSc1nnc(Cc2ccccc2)o1)c1ccc2c(c1)OCO2 | – | inconclusive [activator, partial curve] |
| Cc1ccc2cc(CN(Cc3ccco3)C(=O)c3ccccc3)c(=O)[nH]c2c1C | inactive: -14.5% | – |
| COc1cccc(C2=NN(C(C)=O)C(c3cn(-c4ccccc4)nc3-c3cccs3)C2)c1 (centres undefined) | inactive: 11% | – |
| CC(C)NC(=O)NC(=O)COC(=O)c1ccc(OC(F)(F)F)cc1 | – | inconclusive [activator, partial curve] |
| COc1ccc(NC(=O)C2Cc3c(-c4ccc5c(c4)OCO5)ccnc3O2)cc1OC (centres undefined) | – | inconclusive [activator, partial curve, poor fit] |
| CCOC(=O)c1c(S(=O)(=O)N2CCCC(C(=O)Nc3cc(C)ccc3OC)C2)c(C)n(C)c1C (centres undefined) | – | inconclusive [activator, full curve, poor fit] |
| Cc1cc(=O)oc2c3c(cc(OCC(=O)NCc4ccccc4)c12)OC(C)(C)CC3 | – | inconclusive [activator, single point] |
| CCOC(=O)c1ccc(NC(=O)COc2ccccc2OC)cc1 | – | inconclusive [activator, partial curve] |
| Cc1ccc(/C(N)=N/OC(=O)c2ccco2)cc1 | inconclusive: -36.4% [activator] | – |
| CC(C)(OC(=O)c1ccc(F)cc1)c1cc2ccccc2c(=O)o1 | – | inconclusive [activator, full curve] |
| CCC(C)NC(=O)C1CCN(C(=O)c2cc3sccc3n2Cc2ccc(Cl)cc2)CC1 (centres undefined) | inactive: 4.98% | – |
| COCCNc1nc(Oc2cccc3ccccc23)c2sccc2n1 | – | active: 15.8 µM |
| CC(C)c1ccc(Nc2cc(C(=O)NCCc3ccccc3)c3ccccc3n2)cc1 | – | inconclusive [activator, full curve] |
| COc1ccc(CCNC(=O)CCn2c(=O)c3ccccc3n(CC(=O)Nc3cccc(C)c3)c2=O)cc1OC | – | inconclusive [activator, full curve, poor fit] |
| CC(=O)c1ccc(NC(=O)Cn2c(-n3nc(C)cc3C)nc(C)cc2=O)cc1 | – | inconclusive [activator, partial curve] |
| CC(=O)c1cccc(Nc2ccc(Br)cc2)c1 | – | active: 14.1 µM |

| Compound | growth rescue (activation) | Potency |
| --- | --- | --- |
| COc1cc(OC)cc(-c2nnc(SCC(=O)N3CCC(C)CC3)o2)c1 | – | inconclusive [activator, partial curve, poor fit] |
| CC1CCCN(C(=O)c2cc(-c3cccs3)nc3ccccc23)C1 (centres undefined) | – | inconclusive [activator, single point] |
| Cc1cccn2c(=O)c(/C=C(\C#N)C(N)=O)c(N3CCN(c4cccc(Cl)c4)CC3)nc12 | – | active: 25.1 µM |
| O=C(Nc1cccc(F)c1)C1CC(=O)N(c2ccc(Br)cc2)C1 (centres undefined) | – | inconclusive [activator, partial curve, poor fit] |
| Cc1ccc(NC(=O)COC(=O)CCNS(=O)(=O)c2ccc(C)c(C)c2)cc1 | inactive: 19.4% | – |
| CC(C)CN(C(=O)COC(=O)COc1ccc2ccccc2c1)c1c(N)n(Cc2ccccc2)c(=O)[nH]c1=O | inactive: 22.7% | – |
| Cc1ccc(CN2C(=O)c3ccccc3S(=O)(=O)c3ccc(C(=O)OCC4CCCO4)cc32)cc1 (centres undefined) | inactive: 15.9% | – |
| COCCN=c1scc(-c2cccs2)n1/N=C/c1ccc(O)c(O)c1O | – | inconclusive [activator, partial curve] |
| COCCCN1C(=O)C(CC(=O)NC2CCCC2)CC(C(=O)N2CCOCC2)=C1C (centres undefined) | – | inconclusive [activator, partial curve, poor fit] |
| CCN(CC)C(=O)[C@H]1CC(CC(=O)NCC23CC4CC(CC(C4)C2)C3)C(=O)N2CCc3c([nH]c4ccc(OC)cc34)[C@]12C (some centres undefined) | – | inconclusive [activator, single point] |
| COc1cccc(NC(=O)CN(C)C(=O)c2cccc(NS(=O)(=O)c3ccccc3)c2)c1 | inactive: 6.67% | – |
| CCOc1nc(NC(=O)NS(=O)(=O)Oc2ccc(Cl)cc2)nc(-c2ccccc2)n1 | – | inconclusive [activator, partial curve] |
| COc1cccc(-c2cc(C(=O)NCc3ccccc3)[nH]n2)c1 | – | inconclusive [activator, partial curve] |
| O=C(/C=C/c1ccccc1[N+](=O)[O-])OCC(=O)c1ccccc1 | – | active: 20 µM |
| CSc1ncccc1C(=O)Nc1ccc2c(c1)OCCO2 | inactive: 0% | – |
| CCC(=O)Nc1ccc(Cl)c(NC(=O)c2ccc([N+](=O)[O-])cc2)c1 | – | inconclusive [activator, single point] |
| Cc1ccc(OCC(=O)Nc2c(Cl)ccc3nsnc23)cc1C | – | inconclusive [activator, full curve, poor fit] |
| COc1cccc(Nc2nc(C(N)CCc3ccccc3)cs2)n1 (centres undefined) | inactive: 5.46% | – |
| Cc1ccc(C)c(NS(=O)(=O)c2c(C)nc3sccn3c2=O)c1 | – | inconclusive [activator, partial curve] |
| NS(=O)(=O)c1ccc(N2N=C(c3ccccc3)CC2c2ccc(F)cc2)cc1 (centres undefined) | – | inconclusive [activator, partial curve] |
| Cc1ccc(C)c(Nc2cc(C)nc(-c3ccccc3O)n2)c1 | – | active: 14.1 µM |
| Cc1oc2ccc(O)cc2c1C(=O)c1ccc(Cl)cc1 | – | inconclusive [activator, single point] |
| COc1ccc(Cl)cc1NC(=O)CCN1C(=O)C2C3C=CC(C4CC34)C2C1=O (centres undefined) | – | inconclusive [activator, single point] |

| Compound | growth rescue (activation) | Potency |
| --- | --- | --- |
| COc1ccc(Nc2ncc(C(=O)Nc3cc(C)ccc3OC)c3ccccc23)cc1 | – | inconclusive [activator, full curve, poor fit] |
| Cc1ccc(C)c(S(=O)(=O)N2CCCC2CNC(=O)c2ccc([N+](=O)[O-])cc2)c1 (centres undefined) | – | inconclusive [activator, single point] |
| COc1cccc(C(=O)NC(c2ccc(Cl)cc2)c2cc(Cl)c3cccnc3c2O)c1 (centres undefined) | – | inconclusive [activator, single point] |
| CCOC(=O)c1sc(Nc2ccccc2Cl)nc1C | – | active: 20 µM |
| Cc1ccc(C=C2C=C(c3ccccc3)OC2=O)cc1 | inactive: 10.6% | – |
| Cc1nn(-c2ccccc2)c(C)c1NC(=O)CCl | – | inconclusive [activator, partial curve, poor fit] |
| O=C(COc1ccc(C(=O)c2ccccc2)cc1)NCC1CCCCC1 | – | inconclusive [activator, partial curve] |
| COCCNC(=O)c1c(N)n(CCC2=CCCCC2)c2nc3ccccc3nc12 | – | inconclusive [activator, partial curve] |
| CCCC(=O)Nc1cccc(-c2nc3cc(C)c(C)cc3o2)c1C | – | inconclusive [activator, full curve, poor fit] |
| Cc1cc(NS(=O)(=O)c2ccc(-c3ccccc3)cc2)no1 | – | active: 10 µM |
| CC(=O)c1cccc(Nc2c3c(nc4nc(-c5cccs5)nn24)CCCC3)c1 | inactive: 22.5% | – |
| COC(=O)c1ccsc1NS(=O)(=O)c1ccccc1 | – | inconclusive [activator, single point] |
| Oc1ccccc1N1CCN(C(=S)NCCc2ccccc2)CC1 | – | inconclusive [activator, partial curve, poor fit] |
| CCOc1ccc(NC(=S)NNC(=O)c2ccc(Br)cc2)cc1 | – | inconclusive [activator, partial curve] |
| CCSc1ccccc1-c1nc(-c2ccncc2)no1 | – | inconclusive [activator, single point] |
| CCCCC(=O)Nc1sc(C(=O)N(CC)CC)c(C)c1C(=O)OC | – | inconclusive [activator, single point] |
| C(=N\c1ncnc2sccc12)/NOCc1ccccc1 | – | inconclusive [activator, single point] |
| Fc1cccc(Cl)c1CSc1nnnn1-c1ccc2c(c1)OCO2 | inactive: 13.5% | – |
| COc1ccc(NC2=C(c3ccc(OC)cc3)C(=O)c3ccccc32)cc1 | inactive: 4.89% | – |
| CS(=O)(=O)N1N=C(c2ccccc2)CC1c1ccc2nccnc2c1 (centres undefined) | inactive: -10.7% | – |
| CCc1cccc(NC(=O)c2c(C)oc3ncnc(N4CCCCC4)c23)c1 | – | inconclusive [activator, partial curve] |
| O=C(c1cc(-c2ccccc2Cl)nc2ccccc12)N1CCC1 | inconclusive: 53.4% [activator] | – |
| c1ccc2c(c1)oc1c(NCCCn3ccnc3)ncnc12 | inactive: 6.22% | – |
